From PubChem BioAssay (NCI)
Several values for one entry are separate records, joined by “and”; a condition that tells them apart may be missing. Equal values may be shown once.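 Following 48 hours of exposure in 96-well plates, responses at five concentrations were used to interpolate endpoints linearly. At the GI50, growth is halved. At the TGI there is no net growth.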

Test system: NCI-H322M lung
Test: inhibition of tumour cell growth, NCI panel, 48 h

Row | SMILES | TGI | GI50
1 | O=C1C(=Cc2cccc(Cl)c2)N=C(c2ccccc2)N1n1c(-c2ccccc2)nc2ccccc2c1=O | > 100 µM | –
2 | CCOc1cc(/C=N\O)cc(/C=N/O)c1O | > 100 µM | –
3 | O=C(NCCN1CCOCC1)Nc1nc2ccc(Sc3nnc4ccc(-c5ccc(F)cc5)nn34)cc2s1 | > 100 µM | 6390 nM
4 | COc1ccc(/C=C(/C(=O)N2CCN(c3ccc(C)cc3)CC2)c2cc(OC)c(OC)c(OC)c2)cc1N | > 100 µM | 530 nM
5 | COc1ccc(-c2cc(=O)c3c(OC)c(O)c(OC)cc3o2)cc1 | > 100 µM | –
6 | CC(C)C[C@H](NC(=O)[C@H](Cc1ccccc1)NC(=O)c1cnccn1)B(O)O | 6.58 µM and 0.704 µM and 0.996 µM | 77.9 nM and 25.9 nM
7 | Cc1nnc(N2C(=O)C(=Cc3ccc(Cl)cc3)N=C2c2ccc(Cl)cc2)nc1/C=C\c1ccc(N(C)C)cc1 | > 100 µM | –
8 | O=C(c1ccc(-c2ccccc2)cc1)N(Cc1cccnc1)C(=S)N(Cc1cccnc1)C(=O)c1ccc(-c2ccccc2)cc1 | > 100 µM | –
9 | Cc1cc(NCCCNc2ccnc3cc(Cl)ccc23)nc(Nc2ccc(C(=O)N3CCCCC3)cc2)n1 | 7.52 µM | 2580 nM
10 | NNC(=O)CC(=O)Nc1ccccc1Cl | > 100 µM | –
11 | COc1ccc(OC)c2sc(N3C(=O)/C(=C/c4ccc(SC)cc4)N=C3c3ccccc3)nc12 | > 100 µM | –
12 | CN(C(=N)c1ccccc1)c1ccccc1 | > 100 µM | –
13 | COC(=O)c1c(O)ccc2c1c1cc3ccccc3c(O)c1n2Cc1ccccc1Cl | > 100 µM | –
14 | O=C1/C(=N/N=C(c2ccccc2)c2ccccc2)c2ccccc2-c2ccccc21 | > 100 µM | –
15 | CCCCCCCCCCCCCCCCSS(C)(=O)=O | > 100 µM | –
16 | O=C1CCN=C(NC(=O)C(F)(F)F)N1CCc1c[nH]c2ccccc12 | > 100 µM | –
17 | CC(=O)CC(=O)ON(C)C(C)=O | > 100 µM | –
18 | C=C(C)[C@@H]1CC[C@]2(C(=O)N3CCN(C)CC3)CC[C@]3(C)[C@H](CC[C@@H]4[C@@]5(C)C/C(=C/c6ccncc6)[C@H](O)C(C)(C)[C@@H]5CC[C@]43C)[C@@H]12 | 76.4 µM | 17200 nM
19 | Clc1ccc(-c2c3nc(c(-c4ccc(Cl)cc4)c4ccc([nH]4)c(-c4ccc(Cl)cc4)c4nc(c(-c5ccc(Cl)cc5)c5ccc2[nH]5)C=C4)C=C3)cc1 | > 100 µM | –
20 | CN(C)c1ccc(/C=N/NC(=O)CSc2nc3sc4c(c3c(=O)n2-c2ccccc2)CCCCC4)cc1 | > 100 µM | 4220 nM
21 | COc1c(C(=O)/C(=N/Nc2cccc(Cl)c2)C(C)=O)c(O)c(OC)c2occc12 | > 100 µM | –
22 | C/C(=N\NC(=O)c1cccc(S(=O)(=O)N2CCN(C)CC2)c1)c1cc(Cl)ccc1O | > 100 µM | 470 nM
23 | CCCCCCCC(=O)SCC/C=C/[C@@H]1CC(=O)NCc2cccc(n2)C2=N[C@@](C)(CS2)C(=O)N[C@@H](C(C)C)C(=O)O1 | > 9.17 µM | 98.6 nM
24 | Clc1ccc(/C=c2\nc(-c3ccccc3)n3c2nc2ccccc23)cc1 | > 100 µM | –

Row | SMILES | TGI | GI50
25 | N#Cc1c(N)n(C2OC(CO)C(O)C2O)c2ncnc(N)c12 (stereo not given) | 0.237 µM | –
26 | CC(C)(c1ccccc1)c1ccc(Oc2ccc3c(c2)-c2nc-3nc3[nH]c(nc4nc(nc5[nH]c(n2)c2ccc(Oc6ccc(C(C)(C)c7ccccc7)cc6)cc52)-c2cc(Oc5ccc(C(C)(C)c6ccccc6)cc5)ccc2-4)c2ccc(Oc4ccc(C(C)(C)c5ccccc5)cc4)cc32)cc1 | > 100 µM | –
27 | Cn1ncc2c(=O)[nH]c(-c3ccccc3)nc21 | > 100 µM | –
28 | CC[C@]12C=CCN3CC[C@@]4(c5ccc(OC)cc5N(C)[C@H]4[C@@](O)(C(=O)OC)[C@@H]1OC(=O)CCCC[P+](c1ccccc1)(c1ccccc1)c1ccccc1)[C@@H]32 | 14 µM | 3330 nM
29 | O=C(O)c1[nH]c(=O)[nH]c(=O)c1CN1CCCCC1 | > 100 µM | –
30 | COc1ccc2c3c(ccc2c1)NC(C(=O)O)CC3 (stereo not given) | > 100 µM | –
31 | COc1cc(/C=C/C(=O)c2ccc(F)cc2)ccc1OCCCCOc1cc2c(cc1OC)C(=O)N1CCCC1C=N2 (stereo not given) | > 35.5 µM | 3240 nM
32 | O=C1C2c3[nH]c4ccccc4c3C3CCC(c4ccccc4)CC3C2C(=O)N1c1ccccc1 (stereo not given) | > 100 µM | –
33 | Cc1cccc(C)c1NC(=O)C(=O)C(c1ccccc1Cl)S(=O)(=O)Cc1ccccc1Cl (stereo not given) | > 100 µM | –
34 | O=C(O)COc1cc(-c2ccccc2F)nc2cc3c(cc12)OCO3 | > 100 µM | –
35 | COC(=O)CCC(=O)Nc1cccc(C(F)(F)F)c1 | > 100 µM | –
36 | NCc1ccc(O)c(O)c1O | 59.2 µM | –
37 | COc1cc(-c2nn(-c3ccc(NC(=O)Nc4ccc(Cl)c(C(F)(F)F)c4)cc3)cc2-c2ccncc2)ccc1Cl | 5.38 µM | 1960 nM
38 | Cc1cccc(NC(N)=S)c1 | > 100 µM | –
39 | O=C(/C=C/c1ccc[nH]1)c1ccccc1 | > 100 µM | –
40 | O=C(O)\C=C/C=C/C=C/C=C/C(=O)O | > 100 µM | –
41 | CC(C)C(C)C(O)C(O)C(C)C1CCC2C3COC(=O)C4CC(O)C(O)CC4(C)C3CCC12C (stereo not given) | > 100 µM | –
42 | CCOP(=O)(OCC)c1cc2cc(O)ccc2oc1=O | > 100 µM | –
43 | CC1OC1P(=O)(O)O (stereo not given) | > 100 µM | –
44 | COc1ccc(C(=C(C#N)C#N)c2ccc(OC)cc2)cc1 | > 100 µM | –
45 | O=S(=O)(Nc1nc2ccccc2nc1Nc1cccc2ccccc12)c1ccccc1 | > 100 µM | –
46 | CCCCN1C(=O)C2c3[nH]c4ccccc4c3C3CCCCC3C2C1=O (mixture of isomers) | 49 µM | –
47 | CSc1ccc(/C=C/C(=O)c2nc3ccccc3[nH]2)cc1 | 71.1 µM | –
48 | O=C(Nc1ccc(-n2ccc3c(NC(=O)c4ccccc4)ncnc32)cc1)Nc1ccc(Cl)c(C(F)(F)F)c1 | 4.47 µM | 1830 nM
